Publication PMC9911399, “Two distinct binding modes provide the RNA-binding protein RbFox with extraordinary sequence specificity”
Residue numbers refer to the chain shown, from its start. The list shows a part of the results.

T1: RBFOX1 RRM (Homo sapiens, UniProt Q9NWB1 109-208)
T1 sequence: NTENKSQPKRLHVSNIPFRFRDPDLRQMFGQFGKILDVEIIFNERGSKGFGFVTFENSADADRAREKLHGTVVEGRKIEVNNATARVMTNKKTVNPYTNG

B1: UAUUUUU (DNA:RNA)
RNA: GGGAGACCGGAAUUCAGAUUGUCCUAUUUUUUUAAAUCCCGUCGUAGCCACCA
DNA 1: CAATCTGAATTCCGGTCTCCC
DNA 2: TGGTGGCTACGACGGGATT
B2: AUUGGGU (DNA:RNA)
RNA: B1 RNA with U25A, A26U, U28G, U29G, U30G
DNA 1: CAATCTGAATTCCGGTCTCCC
DNA 2: TGGTGGCTACGACGGGATT
B3: UUCCACC (DNA:RNA)
RNA: B1 RNA with A26U, U27C, U28C, U29A, U30C, U31C
DNA 1: CAATCTGAATTCCGGTCTCCC
DNA 2: TGGTGGCTACGACGGGATT
B4: UCACUCC (DNA:RNA)
RNA: B1 RNA with A26C, U27A, U28C, U30C, U31C
DNA 1: CAATCTGAATTCCGGTCTCCC
DNA 2: TGGTGGCTACGACGGGATT
B5: AGGGUAA (DNA:RNA)
RNA: B1 RNA with U25A, A26G, U27G, U28G, U30A, U31A
DNA 1: CAATCTGAATTCCGGTCTCCC
DNA 2: TGGTGGCTACGACGGGATT
B6: AACGUAG (DNA:RNA)
RNA: B1 RNA with U25A, U27C, U28G, U30A, U31G
DNA 1: CAATCTGAATTCCGGTCTCCC
DNA 2: TGGTGGCTACGACGGGATT
B7: UUAGAGC (DNA:RNA)
RNA: B1 RNA with A26U, U27A, U28G, U29A, U30G, U31C
DNA 1: CAATCTGAATTCCGGTCTCCC
DNA 2: TGGTGGCTACGACGGGATT
B8: GGCGCAG (DNA:RNA)
RNA: GGGAGACCGGAAUUCAGAUUGUCCGGCGCAGUUAAAUCCCGUCGUAGCCACCA
DNA 1: CAATCTGAATTCCGGTCTCCC
DNA 2: TGGTGGCTACGACGGGATT
B9: AGAGCUU (DNA:RNA)
RNA: B8 RNA with G25A, C27A, A30U, G31U
DNA 1: CAATCTGAATTCCGGTCTCCC
DNA 2: TGGTGGCTACGACGGGATT

These binders were tested against T1, RBFOX1 RRM (assay: EMSA; HiTS-Eq, 1 nM pool, 10 min; buffer printed only for the single-RNA assays: 10 mM Tris pH 7.5, 150 mM NaCl, 3.4 mM EDTA, 0.001% NP-40, 30 C). Conditions: tags: His6 N-terminal (pET28a); label: 5' 32P.
In short: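 Purified RbFox RRM, wild type or mutant, was incubated for 10 min in 50 µL with 1 nM of a 5′-radiolabelled RNA pool carrying 7 randomized nucleotides, whose flanks were annealed to DNA oligonucleotides, over a series of increasing protein concentrations. Unbound RNA was resolved on 8% native PAGE, cut out, reverse-transcribed, barcoded by PCR and sequenced on an Illumina HiSeq 2500. Relative association constants were derived from changes in read counts for each RNA species versus the control reaction and normalised to the cognate motif.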

| Binder | binding signal |
| --- | --- |
| B1 | 0.0102 KA relative to UGCAUGU |
| B2 | 0.0105 KA relative to UGCAUGU |
| B3 | 0.0065 KA relative to UGCAUGU |
| B4 | 0.00159 KA relative to UGCAUGU |
| B5 | 0.0131 KA relative to UGCAUGU |
| B6 | 0.00663 KA relative to UGCAUGU |
| B7 | 0.0126 KA relative to UGCAUGU |
| B8 | 0.0128 KA relative to UGCAUGU |
| B9 | 0.00761 KA relative to UGCAUGU |
